Drawing on PubChem BioAssay AID360 (National Center for Advancing Translational Sciences (NCATS), 2006), this text covers Potency for 92 molecules.

Molecules are shown by their SMILES. Out of some 48,000 compounds screened, about 550 (1.1%) were called active. Another 4% or so got no clear call; they are omitted. No stated cut-off is given here; in the data, active means potency below about 15 µM; inconclusive means mostly about 16 µM to 33 µM; inactive means weaker than that. The list shows a part of the results.
Potency means the concentration at half of the fitted maximal effect.

Sequence of UniProt P04062 (P04062 whole entry, looked up): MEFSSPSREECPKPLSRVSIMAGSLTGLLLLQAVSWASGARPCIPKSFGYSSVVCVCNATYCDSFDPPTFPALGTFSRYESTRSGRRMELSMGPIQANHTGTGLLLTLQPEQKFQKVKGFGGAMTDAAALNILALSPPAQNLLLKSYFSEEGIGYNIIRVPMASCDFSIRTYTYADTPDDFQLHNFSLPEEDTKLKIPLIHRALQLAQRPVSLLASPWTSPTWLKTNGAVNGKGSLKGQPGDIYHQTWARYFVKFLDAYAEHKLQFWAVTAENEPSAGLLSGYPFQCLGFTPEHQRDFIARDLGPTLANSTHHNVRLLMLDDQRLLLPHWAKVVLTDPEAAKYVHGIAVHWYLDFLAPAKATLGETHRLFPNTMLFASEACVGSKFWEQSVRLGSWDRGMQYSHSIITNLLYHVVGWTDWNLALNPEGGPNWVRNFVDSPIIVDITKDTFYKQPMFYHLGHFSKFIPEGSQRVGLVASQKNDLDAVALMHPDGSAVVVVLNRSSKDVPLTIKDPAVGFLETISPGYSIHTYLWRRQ

In the assay the target is Lysosomal acid glucosylceramidase (Homo sapiens) (UniProt P04062). The assay is described as follows: Glucocerebrosidase.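 Further: the screen sought inhibitors.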 The conditions noted are these: purified enzyme, resorufin glucoside fluorescence (screen aimed at inhibitors), 20 min. In outline:
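Wild-type enzyme at 0.2 nM final in 50mM citric acid/KH2PO4, 10mM sodium taurocholate, 0.01% tween-20, pH 5.9, with resorufin beta-D-glucopyranoside at 30 uM final. Compounds titrated, 20 min at RT, red fluorescence read; AC50 from titration.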
As for `CCc1sc(C(=O)N2CCN(S(C)(=O)=O)CC2)cc1Br`, the Potency was inactive: > 76.9 µM.
Turning to `Cn1c(NCc2ccccc2O)nc2ccccc21`, the Potency was inactive: > 76.9 µM.
Next, `O=C(NCc1ccco1)c1cc(-c2ccccc2)c(N2CCOCC2)s1`: inactive: > 76.9 µM; `CCN1C(=O)c2cccc3c(NS(=O)(=O)c4ccc(NC(C)=O)cc4)ccc1c23`: inactive: > 76.9 µM; `Cc1ccc(C(O)CN2C3=NCCN3c3ccccc32)cc1` (configuration not stated): inactive: > 76.9 µM.
Consider `CC(NC(=O)c1ccccc1Cl)C1COc2ccccc2O1` (configuration not stated), for which the Potency is inactive: > 76.9 µM.
Next, `CC(=O)N1CCN(c2ccc(N=Cc3c(O)n(Cc4ccccc4)c(=O)[nH]c3=O)cc2)CC1`: inactive: > 76.9 µM.
On to `COCCn1c(SCC(=O)c2cccc(OC)c2)nnc1-c1ccco1`, for which the Potency was inactive: > 76.9 µM.
Next, `Cc1cc(NC(=O)CSc2nnc(C3CC3)n2N)no1`: inactive: > 76.9 µM; `COc1ccccc1NC(=O)CSc1nccc(=O)[nH]1`: inactive: > 76.9 µM; `CCN(CC)c1ccc2c(c1)OC(N)=C(C#N)C2c1cccnc1` (configuration not stated): inactive: > 76.9 µM.
Next, `CC(=O)OCCCCON1C(=O)c2ccccc2C1=O`: inactive: > 76.9 µM.
The value for `COc1cc2c(cc1OC)-c1nnnn1C(C)(C)C2` was inactive: > 76.9 µM.
In the case of `CC1CCCCN1C(=O)Cn1cc(C(=O)c2ccco2)c2ccccc21` (configuration not stated), the Potency is inactive: > 76.9 µM.
Next, `CCCN1C(=O)c2ccc(C(=O)NCc3ccco3)cc2C1=O`: inactive: > 76.9 µM.
The value for `COc1ccccc1-c1cc(C(F)(F)F)nc(N2CCOCC2)n1` was inactive: > 76.9 µM; that for `O=C(CN1C2CCC1CC(NC(=O)NC1CCCCC1)C2)NC1CC1` (configuration not stated) was inactive: > 76.9 µM; that for `Cc1ccc(/C(O)=C2\C(=O)C(=O)N(CC(C)O)C2c2cccc(F)c2)cc1` (configuration not stated) was inactive: > 76.9 µM.
The value for `Cn1c(=O)c2c(ncn2CC(=O)Nc2nnc(Cc3ccccc3)s2)n(C)c1=O` was inactive: > 76.9 µM; that for `CCN(CC)c1ccc(C(=O)OCC(=O)N2CCN(c3ccccc3)CC2)cc1` was inactive: > 76.9 µM.
On to `Cc1cc(Nc2ccccc2)n(C(=O)c2ccc(N)cc2)n1`, for which the Potency was inactive: > 76.9 µM.
Turning to `Cn1cc(S(=O)(=O)CC(=O)Nc2ccc3c(c2)OCCO3)c2ccccc21`, the Potency was inactive: > 76.9 µM.
Regarding `CC1Cc2ccccc2N1C(=O)CCNS(=O)(=O)c1ccc2c(c1)CCC(=O)N2` (configuration not stated), the Potency entry is “inactive”.
Turning to `O=C(CSc1nnc(-c2ccco2)o1)N1CCOCC1`, the Potency was inactive: > 76.9 µM.
Next, `CN(C)S(=O)(=O)c1cccc(C(=O)Nc2cccnc2)c1`: inactive: > 76.9 µM; `COc1ccc2nc(NC(=O)c3ccc(-n4nc(C)cc4C)cc3)sc2c1`: inactive: > 76.9 µM; `O=C(COc1ncnc2sccc12)N1CCc2ccccc2C1`: inactive: > 76.9 µM.
Consider `CN(C)c1ccc(C(=O)OCC(=O)NC2CCCCC2)cc1`, for which the Potency was inactive: > 76.9 µM.
As for `Cc1nc2nc[nH]n2c(=O)c1NC(=O)c1cccc(OCC(C)C)c1`, the Potency is inactive: > 76.9 µM.
Consider `COc1cc(OC)cc(C(=O)Nn2c(C)nc3ccccc3c2=O)c1`, for which the Potency is inactive: > 76.9 µM.
The value for `CCN(CCNC(=O)c1cccc(N2CCCC2=O)c1)c1ccccc1` was inactive: > 76.9 µM.
Next, `Cc1cc(NC(=O)c2cc(-c3ccncc3)nc3c(C)cccc23)no1`: inactive: > 76.9 µM; `COc1ccc(S(=O)(=O)NCc2ccccn2)cc1Cl`: inactive: > 76.9 µM.
Next, `COCCN(CCOC)c1ncnc2c1cnn2-c1ccc(Cl)cc1`: inactive: > 76.9 µM; `Cc1nnc2n(CCc3ccccc3)c(=O)c3c4c(sc3n12)CCCC4`: inactive: > 76.9 µM.
As for `COc1ccc(NC(=O)NCc2cccn2C)c(OC)c1`, the Potency was inactive: > 76.9 µM.
Next, `COc1ccc(CNC(=O)C2C3C=CC4(CN(Cc5cccnc5)C(=O)C24)O3)cc1` (configuration not stated): inactive: > 76.9 µM.
Next, `Cc1csc(NC(=O)c2nc(-c3ccccc3)n(-c3ccccc3)n2)n1`: inactive: > 76.9 µM.
The value for `Cn1c(-c2ccc(F)cc2)cnc1SCC(=O)NCc1ccco1` was inactive: > 76.9 µM; that for `CCOC(=O)c1cnn2c(N)c(C#N)nnc12` was inactive: > 76.9 µM.
In the case of `Cc1nc2nc(COc3ccccc3)[nH]n2c(=O)c1Cl`, the Potency is inactive: > 76.9 µM.
Next, `COc1ccc(OCCOC(=O)c2cccc(-n3cnnn3)c2)cc1`: inactive: > 76.9 µM.
On to `Cn1c(=O)c2ncn(CC(=O)Nc3cc(C(F)(F)F)ccc3N3CCOCC3)c2n(C)c1=O`, for which the Potency is inactive: > 76.9 µM.
The value for `CCOC(=O)c1cc2sccc2n1Cc1ccccc1` was inactive: > 76.9 µM; that for `O=C1OC(c2ccccc2)=C/C1=C\N1CCOCC1` was inactive: > 76.9 µM.
Next, `Cc1nn(Cc2ccccc2)c2sc(C(=O)NCc3cccnc3)cc12`: inactive: > 76.9 µM.
As to `Cc1cccc(NC(=O)CSc2nnc(-c3ccccc3C)o2)c1`, the Potency is inactive: > 76.9 µM.
Next, `CN1C(=O)C2CN(CCc3ccccc3)CNC2N(C)C1=O` (configuration not stated): inactive: > 76.9 µM; `CCOc1ccc(OCC)c(NS(=O)(=O)c2cccc3nsnc23)c1`: inactive: > 76.9 µM.
Consider `COc1ccc(C)cc1NC(=O)C1CC(=O)N(Cc2ccco2)C1` (configuration not stated), for which the Potency was inactive: > 76.9 µM.
The value for `COc1ccc(C(CC(=O)O)NC(=O)COc2ccccc2)cc1OC` (configuration not stated) was inactive: > 76.9 µM; that for `CC(=O)Nc1cccc(Oc2cc(C#N)c(C#N)cc2N2CCCCCC2)c1` was “inactive”; that for `O=C(c1ccc(-c2ccccc2)cc1)N1CCC(C(=O)N2CCCC2)CC1` was inactive: > 76.9 µM.
For `COc1ccc(NC(=O)CCN2CCCCCC2)c(OC)c1`, the Potency is inactive: > 76.9 µM.
Next, `O=S(=O)(c1ccc(OCC(O)CN2CCN(c3ccccc3O)CC2)cc1)N1CCOCC1` (configuration not stated): inactive: > 76.9 µM; `CCC1Oc2ccc(C)cc2N(CC(=O)NCCC2=CCCCC2)C1=O` (configuration not stated): inactive: > 76.9 µM; `CC(C)(C)C1CCc2[nH]nc(C(=O)O)c2C1` (configuration not stated): inactive: > 76.9 µM.
Regarding `CSC1=NC2(CCCCC2)C2=C(CCCC2)N1`, the Potency was inactive: > 76.9 µM.
On to `Cc1ccc(N2CC(C(=O)Nc3nnc(C(C)C)s3)CC2=O)cc1` (configuration not stated), for which the Potency is inactive: > 76.9 µM.
Take `COc1ccc2sc(NC(=O)CC(C)C)nc2c1`: the Potency is inactive: > 76.9 µM.
The value for `COCCOC(=O)C1=C(C)Nc2ncnn2C1c1ccc(F)cc1` (configuration not stated) was inactive: > 76.9 µM; that for `O=C(COC(=O)c1cccc(C(=O)OCC(=O)NC2CCCCC2)n1)NC1CCCCC1` was inactive: > 76.9 µM; that for `COc1cc(OC)cc(-c2cc3nc4c(c(N5CCN(c6ncccn6)CC5)n3n2)CCCC4)c1` was inactive: > 76.9 µM.
The value for `CCn1c(=O)cc(SCC(=O)N2CCN(c3ccccn3)CC2)c2ccccc21` was inactive: > 76.9 µM; that for `COc1cc(C(=O)O)cc(Br)c1OC1CCCC1` was inactive: > 76.9 µM.
Next, `O=C(C1CCCCC1)N1CCCC(c2nc(-c3ccc(F)cc3)no2)C1` (configuration not stated): inactive: > 76.9 µM.
Consider `c1ccc2[nH]c(CN3CCN(c4ncnc5c4oc4ccccc45)CC3)nc2c1`, for which the Potency is inactive: > 76.9 µM.
The value for `CCN(CC)c1ccc(C2CC(=O)Nc3cc(OC)c(OC)cc32)cc1` (configuration not stated) was inactive: > 76.9 µM; that for `COc1cccc(C=Nc2cccnc2)c1O` was inactive: > 76.9 µM; that for `COCCCNC(=O)Cn1nnc(-c2ccc(NC(=O)c3ccccc3OC)cc2)n1` was inactive: > 76.9 µM.
The value for `Cn1nc(-c2ccc(Cl)cc2)c2cc(C(=O)N3CCC(N4CCCCC4)CC3)sc21` was inactive: > 76.9 µM; that for `O=C1C2C3c4ccccc4C(c4ccccc43)C2C(=O)N1CN1CCOCC1` (configuration not stated) was inactive: > 76.9 µM; that for `Cn1c(=O)[nH]c(=O)c2c1nc1n2CCCN1CCc1ccccc1` was inactive: > 76.9 µM.
`Cc1onc(-c2ccccc2Cl)c1-c1nc(-c2ccccn2)no1`: the Potency is inactive: > 76.9 µM.
`CCc1noc(C)c1C(=O)Nc1sc(C(=O)N(C)C)c(C)c1C(=O)OC`: the Potency is inactive: > 76.9 µM.
The value for `CSc1ccccc1NC(=O)c1ccoc1C` was inactive: > 76.9 µM; that for `CC(C)(Oc1ccc(Cl)cc1)C(=O)NC1CCSC1=O` (configuration not stated) was inactive: > 76.9 µM.
`O=C(O)CC(NS(=O)(=O)c1ccc(Br)cc1)c1ccco1` (configuration not stated): the Potency is inactive: > 76.9 µM.
Take `CC1(C)CC(NC(=O)c2ccccc2Cl)CC(C)(C)N1`: the Potency is inactive: > 76.9 µM.
The value for `O=C(c1ccc(Cl)s1)N1CCOCC1` was inactive: > 76.9 µM; that for `O=C(NCc1ccco1)c1cc2ccc(O)cc2oc1=O` was inactive: > 76.9 µM.
The value for `CC1CN(C(=O)C2CCCN2S(=O)(=O)c2ccc(Cl)cc2)CC(C)O1` (configuration not stated) was inactive: > 76.9 µM; that for `O=C(Nc1nsc(-c2ccccc2)n1)c1ccncc1` was inactive: > 76.9 µM.
Next, `Cc1ccc(CCNC(=O)C2CCN(C(=O)c3sccc3-n3cccc3)CC2)cc1`: inactive: > 76.9 µM.
Take `Cc1ccc(-n2ncc3c(N4CCN(c5ccc(F)cc5)CC4)ncnc32)c(C)c1`: the Potency is inactive: > 76.9 µM.
In the case of `CCOC(=O)c1c(NC(=O)Cc2cccs2)sc(C(=O)N2CCCCC2)c1C`, the Potency was inactive: > 76.9 µM.
The value for `COc1ccc2c(c1)c1c3n2CCN(C)C3=NCC1` was inactive: > 76.9 µM; that for `CCCCc1c(O)nc(N2CCN(Cc3ccccc3)CC2)[nH]c1=O` was inactive: > 76.9 µM; that for `CN(C)/C=c1\sc2c(C#N)cc(C(=O)c3ccc(Br)cc3)n2c1=O` was inactive: > 76.9 µM.
The value for `CCN(CC)C(=O)CSc1nnc(-c2cnccn2)n1-c1ccccc1` was inactive: > 76.9 µM.
Next, `Cc1nnc(NCCN2CCOCC2)[nH]c1=O`: inactive: > 76.9 µM; `COc1ccc(-c2nc3oc4cc(OC)ccc4c(=O)c3c(=O)n2Cc2ccco2)cc1`: inactive: > 76.9 µM.
